Experimental findings from the RNAGym collection of RNA variant scans (doi:10.7554/elife.90254) are described below.

B1: OR4K15 (parent)
chain: GUUAACGGUCAUAGGCCAUGGAAACUAGGAGCACCAUUUCGCUGCCAGUGAAGAAAUGAACAAAGAAAAUCUGGGCCAGGCAGGCAUCAAAAGAAAUAGUCUUGCGCUCAACCAGAAAGUCUGUAAUCAUUUUAAGGGUA

Read counts are not given, so values of variants with three or more changes are uncertain.

Variants of B1 are the subject of this data set. The data set can be described thus: self-cleavage, relative activity (ratio to wild type); higher = more cleavage; in vitro, sequencing; the parent is a self-cleaving ribozyme.
Regarding GUUAACGGUCAUGGGCCAUGGAGACUAGGAGCACCAUUUCGCUGCCAGUGGAGAAAUGAACAAAGAAAAUCUGGGCCAGGCAGGCAUCAAAAGAAAUAGUCUUGCGCUCAACCAGAGGGUCUGUAAUCGUUUUAAGGGUA, the self-cleavage was 1.13.
On to GUUAACGGUCAUGGGCCAUGGAAACUAGGAGCGCCAUUUCGCUGCCAGUGAAGAAAUGAACAAAGAAAAUCUGGGCCAGGCAGGCAUCAAAAGAAGUAGUCUUGCGCUCAACCAGAAAGUCUGUAAUCAUUUUAAGGGUA, for which the self-cleavage was 0.84.
As for GUUAACGGUCAUGGGCCAUGGAAACUAGGGGCACCAUUUCGCUGCCAGUGAAGAAAUGAACAAAGAAAAUCUGGGCCAGGCAGGCAUCAAAAGAAAUAGUCUUGCGCUCAACCAGAAAGUCUGUAAUCAUUUUAAGGGAA, the self-cleavage was 0.96.
Turning to GUUAACGGUCAUGGGCCAUGGAAACUAGGAGCACCAUUUCGCUGCCAGUGAAGAAAUGAACAAAGAAAAUCUGGGCCGGGCUGGCAUCAAGAGAAAUAGUCUUGCGCUCAACCAGAAAGUCUGUAAUCAUUUUAAGGGUA, the self-cleavage stood at 0.1.
On to GUUAACGGUCAUGGGCCAUGGAAACUAGGAGCACCAUUUCGCUGCCAGUGAAGAAAUGAACAAGGAGAGUCUGGGCCAGGCAGGCAUCAAAAGAAAUAGUCUUGCGCUCAACCAGAAAGUCUGUAAUCAUUUUAAGGGUA, for which the self-cleavage was found to be 1.37.
For the variant GUUAACGGUCAUGGGCCAUGGAGACUAGGAGCACCAUUUCGCUGCCAGUGGAGAAACGAACAAAGAAAAUCUGGGCCAGGCAGGCAUCAAAAGAAAUAGUCUUGCGCUCAACCAGAAAGUCUGUAAUCAUUUUAAGGGUA, the self-cleavage was found to be 0.49.
For the variant GUUAACGGUCAUGGGCCAUGGAACCUAGGAGCACCAUUUCGCUGCCGGUGAAGAAAUGAACAAAGAAAAUCUGGGCCAGGCAGGCAUCAAAAGAAAUAGUCUUGCGCUCAACCAGAAAGUCUGUAAUCAUUUUAAGGGUA, the self-cleavage was 1.08.
Turning to GUUAACGGUCAUGGGCCAUGGAAACUAGGAGCACCAUUUCGCUGCCAGUGAAGAAAUGAGCAAAGAAAAUCUGGGCCAGGCAGGCAUCAAAAGAAAUAGUCUUGCGCUCAACCAGAAAGUCUGUAAUCAGUUUAAGGGUA, the self-cleavage was 0.84.
On to GUUAACGGUCAUGGGCCAUGGAAACUAGGAGCACCAUUUCGCUGCCAGUGGAGAAAUGAACAAAGAAAAUCUGGGCCAGGCAGGCGUCAAAAGAAAUAAUCUUGCGCUCAACCAGAAAGUCUGUAAUCAUUUUAAGGGUA, for which the self-cleavage was 0.16.
In the case of GUUAACGGUCAUGGGCCAUGGAAGCUAGGAGCACCAUUUCGCUGCCAGUGAAGAAAUGAACAAAGAAAAUCUGGGCCAGGCAGGCAUCAAAAGAAAUAGUCUCGCGCUCAACCAGAAAGACUGUAAUCAUUUUAAGAGUA, the self-cleavage was found to be 1.01.
For GUUAACGGUCAUGGGCCAUGGGAACUAGGAGCACCAUUUCGCCGCCAGUGAAGAAAUGAACAAAGAAAAUCUGGGCCAGGCAGGCAUCAAAAGAAAUAGUCUUGCGCUCAACCAGAAAGUCUGUAAUCAUUUUAAGGGUA, the self-cleavage was found to be 1.34.
As to GUUAACGGUCAUGGGCCAUGGAAACUAGGAGCACCAUUUCGCUGCCAGUGAAGAAAUGAACAAGGAAAACCUGGGCCAGGCAGGCAUCAAAAGAAAUAGUCUUGCGCUCAACCAGAAAGUCUGUAGUCAUUUUAAGGGUA, the self-cleavage is 0.65.
Under GUUAACGGUCAUGGGCCAUGGAAACUAGGAGCACCAUUUCGCUGCCAGUGAAGAAAUGAACAGAGAAAAUCUGGGCCAGGCAGGCAUCAAAAGAAAUAGUCUUGCGCUCAGCCAGAAAGUCUGUAAUCAGUUAAAGGGUA stands 0.06; under GUUAACGGUCAUGGGCCAUGGAAACUAGGAGCACCAUUUCGCUGCCAGUGAAGAAAUGAACAAAGAAAUUCUGGGCCUGGCAGGCAUCAAAAGAAAUAGUCUUGCGCUCAACCAGAAGGUCUGUAAUCAUUUUAAGGGUA, 0.24; under GUUAACGGUCAUGGGCCUUGGAAACUAGGAGCACCAUUUCGCUGCCAGUGAAGAAAUGAACAAAGAAAAUCUGGGCCAGGCAGGCAUCAAAAGAAAUAGUCUUGCGCUCAACCAGAGAGUCUGCAAUCAUUUUAAGGGUA, 1.21.
Take GUUAACGGUCAUGGGCCAUGGAAACUAGGAGCACCAUUUCGCUGCCAGUGAAGAAAUGAGCAAAGAAAAUCUGGGCCAGGCAGGCAUCAAGAGAAAUAGUCUUGCGCUCAACCAGAAAGUCUGUAAUCAUUUUAAGGGUA: the self-cleavage turned out to be 0.52.
As to GUUAACGGUCAUGGGCCAUGGAAACUAGGAGCACCAUUUCGCUGCCAGUGAAGAAAUGAACAAAGAAAGUCUGGGCCAGGCAGGCAUCAAAAGGAAUAGUCUUGCGCUCAACCAGAAAGUCUGUAAUCAUUUUAAGGGUA, the self-cleavage amounted to 0.59.
As to GUUAACGGUCAUGGGCCAUGGAAACUAGGAGCACCAUUUCGCUGCCUGUGAAGAAAUGAACAAAGAAAAUCUGGGCCAGGCAGGCAUCAAAGGGAAUAGUCUUGCGCUCAACCAGAAAGUCUGUAAUCAUUUUAAGGGUA, the self-cleavage came to 0.8.
As for GUUAACGGUCAUGGGCCAUGGAAACUAGGAGCACCAUUUCGCUGCCAGUGAAGAAAUGGACAAAGAAAAUCUGGGCCAGGCAGGCAUCAAAAGAAAUAGUCUUGCGCUCAACCAGAAAGUCUGUAAUCAUUUUAAGGAUA, the self-cleavage worked out at 1.16.
Turning to GUUAACGGUCAUGGGCCAUGGAAACUAGGAGCACCAUUUCGCUGCCAGUGAAGAAAUGGACAAAGAAAAUCUGGGCCAGGCAGGCAUCAAAAGAAAUAGUCUCGCGCUCAACCAGAAAGUCUGUAAUCAUUUUAAGGGUG, the self-cleavage was found to be 1.09.
